Hit rate of the full screen: of about 72,000 compounds, about 710 (0.99%) were called active. Inconclusive means that the source gave no clear call. Such entries were picked first, then a sample of the others. The call rests on the fitted dose curve; in most records, active means well fitted inhibition curve with a large enough effect; inconclusive means small, poorly fitted or top-dose-only effect; inactive means no such curve, though single readings can be large or run the other way. Potencies of inconclusive entries are left out as doubtful fits.
Assay: qHTS Assay for Inhibitors of the ERK Signaling Pathway using a Homogeneous Screening Assay; further: nearly all actives have a fitted effect of over 55% in size
Conditions: HEK293-V1b, vasopressin-stimulated pERK AlphaScreen; activity, negative = inhibition: at 57.5 µM (top of the series) unless noted
Summary of the method: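 HEK293 cells stably expressing V1b receptor, preincubated 30 min at 37 °C with compound, then stimulated 5 min with 25 nM vasopressin. Phospho-ERK by AlphaScreen SureFire after 5 h RT; normalized to DMSO and vasopressin; AC50 by Hill fit.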
On the % scale 0 is the no-effect control and ±100 the full control effect; potency means the concentration at half of the fitted maximal effect; tags describe the fitted curve by direction and shape.

Row | SMILES | Potency | activity, negative = inhibition
1 | CCNc1ncc2nc(CCc3ccccc3)c(=O)n(C)c2n1 | inconclusive [inhibitor, partial curve] | 
2 | CN1CCN(S(=O)(=O)c2ccc(NC(=O)c3cccc(S(=O)(=O)N4CCCC4)c3)cc2)CC1 | inconclusive [inhibitor, single point] | 
3 | COc1ccc(Oc2ncc3ncc(=O)n(Cc4ccc(F)cc4)c3n2)cc1 | inconclusive [inhibitor, full curve] | 
4 | CC(=O)c1cc2c(cc1NC(=O)Nc1cccc(Cl)c1)OCCO2 | inconclusive [inhibitor, single point] | 
5 | O[C@@H](c1ccccc1)C1CCN(CCc2ccccc2)CC1 | inactive | 
6 | CCN(CC)CCOc1ccc(/C(=C(\Cl)c2ccccc2)c2ccccc2)cc1 | inconclusive [inhibitor, partial curve, poor fit] | 
7 | Cc1ccccc1NC(=O)CCN1CCN(C/C=C/c2ccccc2)CC1 | inconclusive [inhibitor, partial curve] | 
8 | CC(=O)Nc1ccc(C(=O)OCCC(C)C)cc1 | inconclusive [inhibitor, partial curve] | 
9 | COc1ccc(S(=O)(=O)N2c3ccc(Cl)cc3[C@](O)(c3ccccc3Cl)[C@@H]2C(=O)N2CCC[C@H]2C(N)=O)cc1OC | active: 3.98 µM | 
10 | COc1ccccc1-c1cc(C(=O)NCc2ccco2)no1 | inactive | 
11 | CC1CCCN(C(=O)c2ccc3c(c2)C(=O)N(CCC2=CCCCC2)C3=O)C1 (centres undefined) | inconclusive [inhibitor, single point] | 
12 | COc1cccc(-n2c(SCC(=O)NC3CCCCC3)nc3n[nH]c(C)c3c2=N)c1 | inconclusive [inhibitor, single point] | 
13 | COc1ccc(C(=O)Oc2cccnc2)cc1OC | inconclusive [inhibitor, partial curve] | 
14 | COc1cccc(C(=O)N(Cc2cc3cc(C)ccc3[nH]c2=O)CC2CCCO2)c1 (centres undefined) | inconclusive [inhibitor, partial curve] | 
15 | Cc1ccccc1-c1ccc2ncnc(NCc3cccs3)c2c1 | inconclusive [inhibitor, partial curve] | 
16 | O=C(CSc1nc(-c2ccccc2)cs1)NC(=O)NCc1ccco1 | active: 25.1 µM | 
17 | O=C(c1ccncc1)N1CCC2(CCCN(c3ccccn3)C2)CC1 | inactive | 
18 | N#Cc1c(N)nc2c(c1N)CC(=O)N2c1ccccc1-c1ccccc1 | inconclusive [inhibitor, partial curve, poor fit] | 
19 | COc1ccccc1N1CCN(C(=O)C2C3C=CC4(CN(Cc5ccccc5Cl)C(=O)C24)O3)CC1 (centres undefined) | inconclusive [inhibitor, single point] | 
20 | CCCC(=O)Nc1ncnc2c1ncn2[C@@H]1O[C@@H]2COP(=O)(O)O[C@H]2[C@H]1OC(=O)CCC | inactive | 
21 | CSc1ccccc1NC(=O)c1cccs1 | inconclusive [inhibitor, single point] | 
22 | O=C(Nc1ccc2c(c1)OCO2)c1noc2c1CCCCC2 | inactive | 

Row | SMILES | Potency | activity, negative = inhibition
23 | O=C(c1ccco1)N1CCC2(CC1)CCN(c1ncccn1)CC2 | inconclusive [inhibitor, single point] | 
24 | COc1ccccc1C(=O)Nc1ccccc1N1CCN(S(C)(=O)=O)CC1 | inconclusive [inhibitor, single point] | 
25 | C=CCOC(=O)C(C#N)c1nc2ccccc2nc1N1CCN(c2ccccc2OC)CC1 (centres undefined) | inconclusive [inhibitor, partial curve] | 
26 | O=C(CSc1ncc(-c2ccc(F)cc2)n1Cc1ccco1)Nc1ccc2c(c1)OCO2 | inconclusive [inhibitor, single point] | 
27 | COc1cc(NC(=O)c2ccc(COCC(F)(F)F)o2)cc(OC)c1OC | inconclusive [inhibitor, partial curve] | 
28 | CCc1cc2c(C)cc(=O)oc2cc1OC(=O)C1CCCN1C(=O)OC(C)(C)C (centres undefined) | inactive | 
29 | CC1CCc2nc(NCCO)nc(C(F)(F)F)c2C1 (centres undefined) | inconclusive [inhibitor, partial curve] | 
30 | CC(C)C(C)/C=C/C(C)C1CCC2C3=CCC4CC(=O)CC[C@@]4(C)C3CC[C@]21C (some centres undefined) | inactive | 
31 | O=C(CCSc1nc(-c2ccco2)cc(C(F)(F)F)n1)N1CCN(c2ccccc2)CC1 | inconclusive [inhibitor, full curve, poor fit] | 
32 | CSCCNC(=O)c1ccc(C(C)(C)C)cc1 | inconclusive [inhibitor, single point] | 
33 | CCOC(=O)C1CCCN(c2ccc(NC(=O)c3snc4c(=O)[nH]cnc34)cc2)C1 (centres undefined) | inconclusive [inhibitor, partial curve, poor fit] | 
34 | C=C(C)C(=O)OCC(C)O (centres undefined) | inactive | 
35 | CCCn1c(N2CCN(CC(=O)Nc3ccc4c(c3)OCCO4)CC2)nc2ccccc21 | inconclusive [inhibitor, single point] | 
36 | CC(=O)C1=C(C)NC(SCC(=O)c2cc(Cl)ccc2Cl)=C(C#N)C1c1ccco1 (centres undefined) | inactive | 
37 | COC(=O)c1ccc(-c2nc3ccccc3o2)cc1 | inactive | 
38 | CCn1c(=O)c2cc(C(=O)N3CCN(C(=O)c4ccco4)CC3)sc2c2ccccc21 | inconclusive [inhibitor, partial curve] | 
39 | CCn1c(SCC(=O)Nc2ccc3c(c2)OCO3)nc2c1c(=O)n(C)c(=O)n2C | inconclusive [inhibitor, full curve] | 
40 | N[C@@H](Cc1[nH]nc2ccccc12)C(=O)O |  | inactive: -10.2% [at 11.5 µM]
41 | O=C(CSc1nnc(CNC(=O)c2cccs2)o1)c1ccc(Cl)cc1 | inconclusive [inhibitor, full curve] | 
42 | CCOC(=O)CSC1=C(C#N)C(c2ccccc2F)C(C(C)=O)=C(C)N1 (centres undefined) | inactive | 
43 | COc1ccc(-c2ccccc2C2NC(C(=O)O)CCC2C)cc1 (centres undefined) |  | inactive: 26.7% [at 11.5 µM]
44 | Cc1nc(N2CCN(Cc3ccc4c(c3)OCO4)CC2)c2oc3ccccc3c2n1 | inconclusive [inhibitor, single point] | 

Reference: PubChem BioAssay AID995 (National Center for Advancing Translational Sciences (NCATS), 2007)
